The source of these data is US20140045779A1, “COMPOUNDS CONTAINING AN ALICYCLIE STRUCTURE AND ANTI-TUMOR APPLICATION” (priority 2011, published 2014).

This test has as its system human lung cancer cell line NCI-H460. Nature of the test: In vitro anti-cancer cell experiment (MTT), NCI-H460. To be noted: NCI-H460, read-out: IC50, anti-proliferative effect on NCI-H460 cells.

Converted amounts (≈) assume the structure as drawn.

A word on the IC50: it is the concentration that inhibits the measured activity by half. On to `O=C1C2CC3CC(C2)OC1C3` (stereo not shown) [Example 43, 2-oxaadamantan-4-one], for which the IC50 was determined as 13.7 µg/mL (≈ 89.7 µM).

On to `OC12CC3CC(CC(C3)O1)C2` [Example 47, 2-oxaadamantan-1-ol], for which the IC50 is 17.2 µg/mL (≈ 112 µM). The same measure for `COc1cc(C23CN4CN(C2)CC(c2cc(OC)c(OC)c(OC)c2)(C4)C3=O)cc(OC)c1OC` [Example 62, (1r,3r,5r,7r)-5,7-bis(3,4,5-trimethoxyphenyl)-1,3-diazaadamantan-6-one]: 4.89 µg/mL (≈ 10.1 µM); for `CCCCCNC12CN3CN(CN(C3)C1)C2` [Example 68, (1s,3s,5s)-N-pentyl-1,3,5-triazaadamantan-7-amine]: 3.38 µg/mL (≈ 15.1 µM).
